# Measurements taken from the supplement of paper PMC8728848.
# The list shows a part of the results.
# B1: NcCVNHO (Neurospora crassa), Q7S6U4 (protein)
# chain: MSFHVTAEDARIEVRDNRTILFARLRREDGEWNDASYELDQIIGNNDGHFQWGGQNFTETAEDIRFHPKEGAAEQPILRARLRDCNGEFHDRDVNLTEIVENVNGEFQAKF
# Assays:
# Experiment in all cases: glycan array binding signal (z-score within array); higher = stronger binding
# Conditions in all cases: glycan notation: IUPAC condensed, linker removed
# [1] = target: Fuc(a1-2)Gal
# Method in brief: (§1)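 Glycan array data were curated from 3228 arrays in the Consortium for Functional Glycomics database and kept only where the protein sequence was available. Glycan names were converted to IUPAC-condensed notation, and columns mapping to the same glycan were averaged. The binding signal is a within-array Z-score, averaged across arrays of the same protein sequence at different concentrations or buffers and across linkers. Negative Z-scores can be read as non-binding.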
# [2] = target: Fuc(a1-2)Gal(b1-3)GalNAc
# Method in brief: as §1
# [3] = target: Fuc(a1-2)Gal(b1-3)GalNAc(b1-3)Gal
# Method in brief: as §1
# [4] = target: Fuc(a1-2)Gal(b1-3)GalNAc(b1-3)Gal(a1-4)Gal(b1-4)Glc
# Method in brief: as §1
# [5] = target: Fuc(a1-2)Gal(b1-3)GalNAc(b1-3)Gal(b1-4)Glc
# Method in brief: as §1
# [6] = target: Fuc(a1-2)Gal(b1-3)GalNAc(b1-4)[Neu5Ac(a2-3)]Gal(b1-4)Glc
# Method in brief: as §1
# [7] = target: Fuc(a1-2)Gal(b1-3)GlcNAc
# Method in brief: as §1
# [8] = target: Fuc(a1-2)Gal(b1-3)GlcNAc(b1-3)Gal(b1-4)Glc
# Method in brief: as §1
# [9] = target: Fuc(a1-2)Gal(b1-3)[Fuc(a1-4)]GlcNAc
# Method in brief: as §1
# [10] = target: Fuc(a1-2)Gal(b1-4)Glc
# Method in brief: as §1
# [11] = target: Fuc(a1-2)Gal(b1-4)Glc6S
# Method in brief: as §1
# [12] = target: Fuc(a1-2)Gal(b1-4)GlcNAc
# Method in brief: as §1
# [13] = target: Fuc(a1-2)Gal(b1-4)GlcNAc(b1-3)Gal(b1-4)GlcNAc
# Method in brief: as §1
# [14] = target: Fuc(a1-2)Gal(b1-4)GlcNAc(b1-3)Gal(b1-4)GlcNAc(b1-3)Gal(b1-4)GlcNAc
# Method in brief: as §1
# [15] = target: Fuc(a1-2)Gal(b1-4)GlcNAc6S
# Method in brief: as §1
# [16] = target: Fuc(a1-2)Gal(b1-4)[Fuc(a1-3)]GalNAc(b1-3)Gal(b1-4)[Fuc(a1-3)]GlcNAc
# Method in brief: as §1
# [17] = target: Fuc(a1-2)Gal(b1-4)[Fuc(a1-3)]GalNAc(b1-3)Gal(b1-4)[Fuc(a1-3)]GlcNAc(b1-3)Gal(b1-4)[Fuc(a1-3)]GalNAc
# Method in brief: as §1
# [18] = target: Fuc(a1-2)Gal(b1-4)[Fuc(a1-3)]GlcNAc
# Method in brief: as §1
# [19] = target: Fuc(a1-2)Gal(b1-4)[Fuc(a1-3)]GlcNAc(b1-3)Gal(b1-4)[Fuc(a1-3)]GlcNAc
# Method in brief: as §1
# [20] = target: Fuc(a1-2)Gal(b1-4)[Fuc(a1-3)]GlcNAc(b1-3)Gal(b1-4)[Fuc(a1-3)]GlcNAc(b1-3)Gal(b1-4)[Fuc(a1-3)]GlcNAc
# Method in brief: as §1
# [21] = target: Fuc(a1-2)Gal6S(b1-4)Glc
# Method in brief: as §1
# [22] = target: Fuc(a1-2)Gal6S(b1-4)Glc6S
# Method in brief: as §1
# [23] = target: Fuc(a1-2)Gal6S(b1-4)GlcNAc
# Method in brief: as §1
# [24] = target: Fuc(a1-2)GlcNAc
# Method in brief: as §1
# [25] = target: Fuc(a1-2)[Gal(a1-3)]Gal
# Method in brief: as §1
# [26] = target: Fuc(a1-2)[Gal(a1-3)]Gal(b1-3)GlcNAc
# Method in brief: as §1
# [27] = target: Fuc(a1-2)[Gal(a1-3)]Gal(b1-4)Glc
# Method in brief: as §1
# [28] = target: Fuc(a1-2)[Gal(a1-3)]Gal(b1-4)GlcNAc
# Method in brief: as §1
# [29] = target: Fuc(a1-2)[Gal(a1-3)]Gal(b1-4)[Fuc(a1-3)]GlcNAc
# Method in brief: as §1
# [30] = target: Fuc(a1-2)[Gal(a1-4)]Gal(b1-4)GalNAc
# Method in brief: as §1
# [31] = target: Fuc(a1-2)[Gal(a1-4)]Gal(b1-4)GlcNAc
# Method in brief: as §1
# [32] = target: Fuc(a1-2)[GalNAc(a1-3)]Gal
# Method in brief: as §1
# [33] = target: Fuc(a1-2)[GalNAc(a1-3)]Gal(b1-3)GlcNAc
# Method in brief: as §1
# [34] = target: Fuc(a1-2)[GalNAc(a1-3)]Gal(b1-4)Glc
# Method in brief: as §1
# [35] = target: Fuc(a1-2)[GalNAc(a1-3)]Gal(b1-4)GlcNAc
# Method in brief: as §1
# [36] = target: Fuc(a1-2)[GalNAc(a1-3)]Gal(b1-4)[Fuc(a1-3)]GlcNAc
# Method in brief: as §1
# [37] = target: Fuc(a1-2)[GalNAc(a1-4)]Gal(b1-4)GlcNAc
# Method in brief: as §1
# [38] = target: Fuc(a1-2)[GalNAc(b1-3)]Gal
# Method in brief: as §1
# [39] = target: Fuc(a1-3)GlcNAc
# Method in brief: as §1
# [40] = target: Fuc(a1-3)[Gal(b1-4)]Glc6S
# Method in brief: as §1
# [41] = target: Fuc(a1-3)[Gal(b1-4)]GlcNAc
# Method in brief: as §1
# [42] = target: Fuc(a1-3)[Gal(b1-4)]GlcNAc(b1-2)Man(a1-3)[Fuc(a1-3)[Gal(b1-4)]GlcNAc(b1-2)Man(a1-6)]Man(b1-4)GlcNAc(b1-4)GlcNAc
# Method in brief: as §1
# [43] = target: Fuc(a1-3)[Gal(b1-4)]GlcNAc(b1-2)Man(a1-6)[Gal(b1-4)GlcNAc(b1-2)Man(a1-3)]Man(b1-4)GlcNAc(b1-4)GlcNAc
# Method in brief: as §1
# [44] = target: Fuc(a1-3)[Gal(b1-4)]GlcNAc(b1-3)Gal(b1-3)[Fuc(a1-4)]GlcNAc
# Method in brief: as §1
# [45] = target: Fuc(a1-3)[Gal(b1-4)]GlcNAc(b1-4)Gal(b1-4)[Fuc(a1-3)]GlcNAc
# Method in brief: as §1
binder,measurement,setting,value
B1,glycan array binding signal (z-score),[1],-0.209
same,glycan array binding signal (z-score),[2],-0.18
same,glycan array binding signal (z-score),[3],-0.219
same,glycan array binding signal (z-score),[4],-0.178
same,glycan array binding signal (z-score),[5],-0.132
same,glycan array binding signal (z-score),[6],-0.232
same,glycan array binding signal (z-score),[7],-0.261
same,glycan array binding signal (z-score),[8],5.47
same,glycan array binding signal (z-score),[9],-0.232
same,glycan array binding signal (z-score),[10],-0.212
same,glycan array binding signal (z-score),[11],-0.176
same,glycan array binding signal (z-score),[12],-0.211
same,glycan array binding signal (z-score),[13],-0.236
same,glycan array binding signal (z-score),[14],-0.19
same,glycan array binding signal (z-score),[15],-0.179
same,glycan array binding signal (z-score),[16],-0.154
same,glycan array binding signal (z-score),[17],-0.12
same,glycan array binding signal (z-score),[18],-0.231
same,glycan array binding signal (z-score),[19],-0.256
same,glycan array binding signal (z-score),[20],-0.096
same,glycan array binding signal (z-score),[21],-0.151
same,glycan array binding signal (z-score),[22],-0.177
same,glycan array binding signal (z-score),[23],-0.185
same,glycan array binding signal (z-score),[24],-0.227
same,glycan array binding signal (z-score),[25],-0.18
same,glycan array binding signal (z-score),[26],-0.226
same,glycan array binding signal (z-score),[27],-0.229
same,glycan array binding signal (z-score),[28],-0.226
same,glycan array binding signal (z-score),[29],-0.193
same,glycan array binding signal (z-score),[30],-0.124
same,glycan array binding signal (z-score),[31],-0.258
same,glycan array binding signal (z-score),[32],-0.204
same,glycan array binding signal (z-score),[33],-0.208
same,glycan array binding signal (z-score),[34],-0.218
same,glycan array binding signal (z-score),[35],-0.232
same,glycan array binding signal (z-score),[36],-0.212
same,glycan array binding signal (z-score),[37],-0.206
same,glycan array binding signal (z-score),[38],-0.236
same,glycan array binding signal (z-score),[39],-0.136
same,glycan array binding signal (z-score),[40],-0.15
same,glycan array binding signal (z-score),[41],-0.207
same,glycan array binding signal (z-score),[42],-0.194
same,glycan array binding signal (z-score),[43],-0.185
same,glycan array binding signal (z-score),[44],-0.169
same,glycan array binding signal (z-score),[45],-0.175
